Experimental findings from article PMC12136788 are described below.

The labels stand for the following.
T1: UNK ZnF1-3 (human, UniProt Q9C0B0 31-174)
T1 sequence: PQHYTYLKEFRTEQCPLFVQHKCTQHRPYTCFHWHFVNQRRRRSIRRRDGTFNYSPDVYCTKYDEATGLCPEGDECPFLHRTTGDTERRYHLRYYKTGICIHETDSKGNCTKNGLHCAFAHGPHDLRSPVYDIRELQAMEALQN

B1: chr9:96305504:96305505:+_ENSG00000048828_ENST00000277165|hu_hu|FALSE|FALSE (ssRNA)
RNA: GGGAGUUCUACAGUCCGACGAUCAGCUGCCCAUUCUUUAAUGAUCACUGGUGAAAAUUCUGGUGGAAGUCUGUUCUUUCUAAAAGCAAGUCUCUCAGUUUUCUUUCUGCUUUCUGCCAAACUAAACAGGACUCCGUAAACAUACAACAGAGGAUUGAGCAUCA
B2: chr14:21319760:21319761:-_ENSMUSG00000021816_ENSMUST00000161445|mus_hu|FALSE|FALSE (ssRNA)
RNA: GGGAGUUCUACAGUCCGACGAUCAGCCAGCAGCAAAUCACCCUGGUGGCUCUCUAAGCAACUUGAGUACUCACAAUAAACUAAAAUUUCUCAUAACAUCUAGGUAACCUAUACAUGUCGUACCUGUACAUCAUAGGUCUAUAUCAACAGAGGAUUGAGCAUCA
B3: chrX:17831648:17831649:+_ENSMUSG00000037369_ENSMUST00000044484|mus_hu|FALSE|FALSE (ssRNA)
RNA: GGGAGUUCUACAGUCCGACGAUCAGUGGAUUUUGGAGAAGGUGUUGCUGUUGAAAUGGCUGAAGAUGGUGAAGAGGCAACAGAGUUAUCAGUCUUUGUAUGAACAGCUGGGUGGAUGUUAUUGACUUUGUCACAGGUUCCAGUCAACAGAGGAUUGAGCAUCA
B4: chrX:51638331:51638332:+_ENSG00000179222_ENST00000326587|hu_mus|FALSE|FALSE (ssRNA)
RNA: GGGAGUUCUACAGUCCGACGAUCACGUGCCUGAGAGUAAUCAUUUGGCCCCUUUGUGGUGGCAUUCUGGGCCUUAAAGCCUGUCUUAGGCCUGGCAGCAGCUGCUGAAACCUCAGUAUCAGCCUUCUCAUUGGCAGUUGGGGGCAACAGAGGAUUGAGCAUCA
B5: 73678298_73680048_964_CDS_ENSMUSG00000022105_ENSMUST00000022701|mouse|control|control (ssRNA)
RNA: GGGAGUUCUACAGUCCGACGAUCCUCAUCUAUAUUACACUCGUGUUCUUUACAGAGAACCUCGAUAAUCCUCGUAUCAUUUUCUAGUUGUUUUGCUAUCCGAGCGCUCCUGUUCUGACCUCUUCUGGGUGUUCGAGGUGAACCCAACAGAGGAUUGAGCAUCA
B6: 111650908_111652965_8090_CDS_ENSG00000009413_ENST00000368805|human|control|control (ssRNA)
RNA: GGGAGUUCUACAGUCCGACGAUCCAUUCUUGGUAGUACACCUUUUCUUACUGAAGGCUUGACAAAAGCUACUCCAUUGGGGGACACUGUGAUAUCAUGCCUAACUUGGUAAAGUAAAUCUGGAGGUACUCUCAGAGAGGUACACAACAGAGGAUUGAGCAUCA

The other results are listed elsewhere or left out.

In the test the target is T1, UNK ZnF1-3. The test is described as follows: nsRBNS (natural sequence RNA bind-n-seq); RBNS binding buffer (assumed for nsRBNS): 25 mM Tris pH 7.5, 150 mM KCl, 3 mM MgCl2, 0.01% Triton X-100, 500 ug/ml BSA, 20 U/ml SUPERase-In, 4 C; UNK is unkempt and MSI1 is Musashi-1; names of the RNAs are library labels; protein concentration not given here; high values mean tight binding.
Consider B1, for which the binding signal came to 1.77 enrichment R.

The molecule B2 gave a binding signal of 1.16 enrichment R.

Regarding B3, the binding signal turned out to be 1.47 enrichment R.

In turn, B4 had a binding signal of 0.913 enrichment R.

In turn, B5 displayed a binding signal of 0.27 enrichment R.

Take B6: the binding signal is 0.876 enrichment R.
